The record followed here is the antibiotic and cytotoxicity screens of Wong et al. (2023).

One assay deals with HSkMC. Briefly: cytotoxicity call (relative viability < 0.9). The settings on record: 10 µM.
Another assay deals with HepG2. In words: cytotoxicity call (relative viability < 0.9). As to conditions: 10 µM.
The test system of the next assay is S. aureus RN4220. Briefly: growth inhibition call (relative growth <= 0.2). The settings on record: 50 µM.

Molecules are shown by their SMILES. The list shows a part of the results.

For `C[C@H](CO)N1C[C@H](C)[C@H](CN(C)C(=O)NC2CCCCC2)Oc2ccc(NS(C)(=O)=O)cc2CC1=O`, the cytotoxicity call in the assay with HSkMC and in the assay with HepG2 was “inactive” each time. Further, in the assay on S. aureus RN4220, the growth inhibition call was “inactive”.
With `C[C@@H]1CN([C@@H](C)CO)C(=O)Cc2cc(NS(=O)(=O)c3cn(C)cn3)ccc2O[C@H]1CN(C)C(=O)Nc1ccc2c(c1)OCO2`, the cytotoxicity call with HSkMC and with HepG2 was “inactive” each time. For the same molecule, in the assay with S. aureus RN4220, the growth inhibition call was “inactive”.
With `CCCCC(=O)OC1(C(=O)CO)CCC2C3CCC4=CC(=O)CCC4(C)C3C(O)CC21C` (stereo not drawn), the cytotoxicity call in the assay on HSkMC and in the assay on HepG2 was “inactive” throughout. In addition, the growth inhibition call in the assay on S. aureus RN4220 is “inactive”.
On to `CC(C)CC#Cc1ccc2c(c1)O[C@H](CN(C)C(=O)c1cnccn1)[C@H](C)CN([C@@H](C)CO)S2(=O)=O`, for which the cytotoxicity call in the assay with HSkMC and in the assay with HepG2 was “inactive” throughout. In the assay on S. aureus RN4220, the growth inhibition call is “inactive”.
Consider `O=C(C[C@@H]1CC[C@H]2[C@@H](COC[C@H](O)CN2C(=O)c2ccccc2F)O1)N1CCN(c2ccccc2)CC1`, for which the cytotoxicity call in the assay with HSkMC and in the assay on HepG2 was “inactive” throughout. The growth inhibition call in the assay on S. aureus RN4220 is “inactive”.
For the molecule `C[C@@H]1CCCCO[C@@H](CN(C)C(=O)Nc2cccc3ccccc23)[C@H](C)CN([C@H](C)CO)C(=O)c2cc(NC(=O)c3ccncc3)ccc2O1`, the cytotoxicity call in the assay on HSkMC and in the assay with HepG2 was “inactive” in each case. Further, in the assay on S. aureus RN4220, the growth inhibition call is “inactive”.
Turning to `COc1ccc(CCNC(=O)[C@@]2(Sc3ccc(C)cc3)CC(=O)N(C3Cc4ccccc4C3)[C@@H]2c2ccc(CO)cc2I)cc1`, the cytotoxicity call in the assay on HSkMC and with HepG2 was “inactive” each time. The growth inhibition call in the assay with S. aureus RN4220 is “inactive”.
With `Cn1c(=O)c2c(ncn2CC(=O)N2CCN(c3ccccc3)CC2)n(C)c1=O`, the cytotoxicity call in the assay on HSkMC and in the assay on HepG2 was “inactive” in each case. Further, in the assay with S. aureus RN4220, the growth inhibition call was “inactive”.
As for `CC1=CC(=O)c2ccccc2C1=O`, the cytotoxicity call in the assay with HSkMC is “inactive”. For the same molecule, in the assay on HepG2, the cytotoxicity call is “active”. In the assay on S. aureus RN4220, the growth inhibition call was “active”.
Regarding `COc1ccc(CN(C)C[C@@H]2OCCCC[C@@H](C)Oc3ccc(NC(=O)c4ccccc4)cc3C(=O)N([C@@H](C)CO)C[C@H]2C)cc1`, the cytotoxicity call in the assay on HSkMC and in the assay with HepG2 was “inactive” each time. In addition, in the assay with S. aureus RN4220, the growth inhibition call is “inactive”.
As to `O=C(C[C@@H]1C=C[C@@H](NS(=O)(=O)c2ccc(F)cc2)[C@H](CO)O1)N1CCC(Cc2ccccc2)CC1`, the cytotoxicity call with HSkMC and in the assay with HepG2 was “inactive” each time. The growth inhibition call in the assay with S. aureus RN4220 is “inactive”.
For `COc1ccc(S(=O)(=O)N(C)C[C@H]2Oc3ccc(NC(=O)CCCN(C)C)cc3CC(=O)N([C@H](C)CO)C[C@@H]2C)cc1`, the cytotoxicity call with HSkMC and in the assay with HepG2 was “inactive” each time. In addition, the growth inhibition call in the assay on S. aureus RN4220 was “inactive”.
As to `Cn1cnc(S(=O)(=O)N2C[C@@H](O)COC[C@@H]3O[C@H](CC(=O)NC4CCC4)CC[C@H]32)c1`, the cytotoxicity call in the assay with HSkMC and with HepG2 was “inactive” in each case. Further, the growth inhibition call with S. aureus RN4220 was “inactive”.
Consider `C[C@H](CO)N1C[C@H](C)[C@@H](CN(C)Cc2ccc(Cl)c(Cl)c2)Oc2ccc(NC(=O)Cc3ccccc3)cc2CC1=O`, for which the cytotoxicity call in the assay with HSkMC and in the assay with HepG2 was “inactive” throughout. Further, the growth inhibition call with S. aureus RN4220 is “inactive”.
With `Cc1ccc(S(=O)(=O)Nc2ccc3c(c2)C(=O)N([C@H](C)CO)C[C@@H](C)[C@H](CN(C)Cc2ccc4c(c2)OCO4)OCCCC[C@@H](C)O3)cc1`, the cytotoxicity call in the assay on HSkMC and in the assay on HepG2 was “inactive” throughout. The growth inhibition call in the assay with S. aureus RN4220 was “inactive”.
Turning to `O=C(N[C@@H]1C=C[C@@H](CC(=O)N2CCOCC2)O[C@@H]1CO)c1ccccn1`, the cytotoxicity call with HSkMC and with HepG2 was “inactive” throughout. For the same molecule, the growth inhibition call in the assay with S. aureus RN4220 was “inactive”.
In the case of `C[C@@H]1CN([C@H](C)CO)C(=O)c2cc(NC(=O)c3ccccc3)ccc2O[C@@H](C)CCCCO[C@@H]1CN(C)C(=O)CCC(F)(F)F`, the cytotoxicity call in the assay with HSkMC and in the assay on HepG2 was “inactive” throughout. Also, the growth inhibition call in the assay with S. aureus RN4220 was “inactive”.
Regarding `C[C@@H]1CCCCO[C@@H](CN(C)Cc2ccc(Cl)c(Cl)c2)[C@H](C)CN([C@@H](C)CO)C(=O)c2cc(NS(=O)(=O)c3ccc(Cl)cc3)ccc2O1`, the cytotoxicity call in the assay on HSkMC and in the assay on HepG2 was “active” each time. In addition, in the assay with S. aureus RN4220, the growth inhibition call is “inactive”.
For the molecule `C[C@H](CO)N1C[C@H](C)[C@H](CN(C)S(=O)(=O)c2ccc(F)cc2)Oc2cc(Br)ccc2S1(=O)=O`, the cytotoxicity call in the assay on HSkMC and with HepG2 was “inactive” throughout. The growth inhibition call in the assay with S. aureus RN4220 was “inactive”.
For the molecule `S=c1[nH]cc(-c2ccccc2)[nH]1`, the cytotoxicity call with HSkMC and with HepG2 was “inactive” each time. Further, the growth inhibition call in the assay with S. aureus RN4220 is “active”.
Regarding `C[C@@H]1CN([C@@H](C)CO)C(=O)CCCn2cc(nn2)CO[C@H]1CN(C)C(=O)Nc1cccc(C(F)(F)F)c1`, the cytotoxicity call in the assay on HSkMC (human skeletal muscle cells) and with HepG2 was “inactive” throughout. The growth inhibition call in the assay on S. aureus RN4220 was “inactive”.
Turning to `COc1cccc(S(=O)(=O)N[C@@H]2C=C[C@H](CC(=O)NC3CCC3)O[C@H]2CO)c1`, the cytotoxicity call in the assay with HSkMC and with HepG2 was “inactive” throughout. Also, the growth inhibition call in the assay with S. aureus RN4220 was “inactive”.
Regarding `C[C@H](CO)N1C[C@H](C)[C@H](CN(C)S(=O)(=O)c2ccc(F)cc2)Oc2ccc(NS(=O)(=O)c3ccc(F)cc3)cc2C1=O`, the cytotoxicity call with HSkMC and in the assay on HepG2 was “inactive” throughout. In the assay on S. aureus RN4220, the growth inhibition call is “inactive”.
For the molecule `CCOC(=O)C1=C(N)C(=O)N(CCCN2CCOCC2)C1`, the cytotoxicity call with HSkMC and with HepG2 was “inactive” in each case. Moreover, the growth inhibition call with S. aureus RN4220 is “inactive”.
Turning to `C[C@@H]1CN([C@H](C)CO)C(=O)c2cc(NC(=O)c3ccccc3)ccc2O[C@@H](C)CCCCO[C@H]1CN(C)C(=O)C1CCCCC1`, the cytotoxicity call in the assay with HSkMC and in the assay with HepG2 was “inactive” each time. Moreover, the growth inhibition call with S. aureus RN4220 was “inactive”.
For `C[C@@H]1CN([C@@H](C)CO)C(=O)CCCn2cc(nn2)CO[C@H]1CN(C)S(=O)(=O)c1ccc(Oc2ccccc2)cc1`, the cytotoxicity call in the assay with HSkMC and in the assay with HepG2 was “inactive” in each case. Besides, the growth inhibition call in the assay on S. aureus RN4220 was “inactive”.
